In this assay the test system is NCI-H322M lung. Nature of the assay: growth of human tumour cells (NCI), 48 h.

We go through 77 compounds from PubChem BioAssay (NCI).

Several values for one entry are separate records, joined by “and”; a condition that tells them apart may be missing. Equal entries are not always repeated.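 Assay format: 96-well plates, 48-hour exposure. GI50 marks 50% less growth. At the TGI there is no net growth.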 Square brackets hold non-standard residues; d marks the D form. Peptide text beside a SMILES is read from it. * marks the point of attachment. Phe(4-NO2) = N[CH](Cc1ccc([N+](=O)[O-])cc1)C(=O)O; Palmitoyl = CCCCCCCCCCCCCCCC(=O)*; Boc = CC(C)(C)OC(=O)*; OtBu = CC(C)(C)O*

As for `CCC1(N2C(=O)c3c(F)c(F)c(F)c(F)c3C2=O)C(=O)NC(=O)N(c2ccccc2)C1=O` (centres undefined), the GI50 is 23.5 µM and the TGI came out at 43 µM.

Turning to `CC(=O)c1c(O)c(C)c(O)c2c1OC1=CC(=O)C(C(C)=O)C(=O)C12C` (centres undefined), the GI50 is 5.75 µM and 20 µM; the TGI was 26.8 µM and 80 µM.

As to `CC(C)n1nc(C#Cc2cccc(NC(=O)c3cccc(C(F)(F)F)c3)c2)c2c(N)ncnc21`, the GI50 was 2.43 µM and the TGI worked out at 7.27 µM.

`O=c1[nH]c2cc(O)ccc2n2cc3c(F)cccc3c12`: the GI50 was 5.03 µM and the TGI was more than 100 µM.

`CN1C(=O)[C@@]2(C=CC3(CC2)OCCO3)c2ccccc21` gave a TGI of more than 50 µM.

In the case of `CC(C)(C)c1ccc(S(=O)(=O)N[C@H]2CC[C@H]3[C@@H]4CCc5cc(O)ccc5[C@H]4CC[C@]23C)cc1`, the GI50 was 4.53 µM and the TGI worked out at 16.3 µM.

As to `COc1cc(CC(=O)c2ccc3c(c2)OCO3)cc(OC)c1OC`, the TGI is more than 100 µM.

As to `COC(=O)Nc1nc2ccc(Sc3ccc(NC(=O)Nc4cc(C(F)(F)F)ccc4F)cc3)cc2[nH]1`, the GI50 is 5.55 µM and the TGI worked out at 17.2 µM.

In turn, `Fc1nc(F)nc(-c2c3ccccc3c3n2CCS3)n1` displayed a TGI of more than 100 µM.

As to `COc1ccc(-n2nc(C)c3c2N(C)C2(C)C[C@@H]4C3(C)[C@@H]3CC4(C2)N(C)c2c(c(C)nn2-c2ccc(OC)cc2)[C@H]3C)cc1` (some centres undefined), the GI50 was 22.4 µM and the TGI was more than 100 µM.

For the compound `C=CC[PH+](c1ccccc1)c1ccccc1.C=CC[PH+](c1ccccc1)c1ccccc1.[Cl][Pt][Cl]`, the GI50 was 17.8 µM and the TGI is 45.8 µM.

The compound `C=C1C(=O)O[C@H]2C(=O)[C@H](C)CCC[C@@](C)(O)/C=C\C[C@@]3(C)O[C@@H]3C[C@@H]12` registered a TGI of 74.5 µM.

With `CC(=O)Nc1ccc(-n2cnc3cc(-c4ccc(OCCN5CCCCC5)cc4)ccc32)cc1`, the GI50 was 7.95 µM and the TGI was more than 33.3 µM.

The compound `COc1ccc(-c2c(C(C)=O)c(C)n(C3OC(CO)C(O)C(O)C3O)c(=S)c2C#N)cc1` (centres undefined) showed a TGI of more than 100 µM.

Take `C=C1c2nc3ccccc3n2C=C(c2ccccc2)N1c1ccc(OC)cc1`: the TGI was more than 100 µM.

Consider `COc1cc(C2c3cc4c(cc3[C@@H](Nc3cccc(O)c3)C3COC(=O)[C@H]23)OCO4)cc(OC)c1O` (some centres undefined), for which the TGI came out at 43.7 µM.

In turn, `N#Cc1nnc2c3c(-c4ccc(Cl)cc4)c(C#N)c(=O)[nH]c3nn2c1N` showed a TGI of 33.7 µM.

`CCCCCCCC(CC(=O)O)OC(=O)CC(CCCCCCC)OC1OC(C)C(O)C(O)C1OC1OC(C)C(O)C(O)C1O` (centres undefined) returned a TGI of more than 100 µM.

Compound `O=C(CC(C(=O)O)N1CCOCC1)c1ccccc1` (centres undefined) came in with a TGI of more than 100 µM.

`Cc1ccc(Nc2nnc3n2S(=O)(=O)c2cc(C)c(Cl)cc2S3)cc1` gave a TGI of more than 100 µM.

On to `CCCCCCCCCCCCCCCC(=O)NC(CCCCN)C(=O)NCC(=O)NC(Cc1ccccc1)C(=O)N1CCCC1C(=O)NC(CO)C(=O)NC(Cc1ccc(O)cc1)C(=O)NC(CCCCN)C(=O)NC(CC(C)C)C(=O)NC(CCCN=C(N)N)C(=O)N1CCCC1C(=O)NCC(N)=O` (centres undefined) (Palmitoyl-KGFPSYKLRPG-NH2; configuration not given here), for which the GI50 was 20.3 µM and the TGI came to 51.9 µM.

For the compound `C#Cc1ccc(-n2c(/C=C/c3cc(OC)c(OC)c(OC)c3)nc3ncccc3c2=O)cc1`, the GI50 was 14.1 µM and the TGI is more than 100 µM.

`NC(CO)c1ccccc1` (centres undefined) returned a TGI of more than 100 µM.

With `COC(=O)C(Cc1ccc([N+](=O)[O-])cc1)NC(=O)C(CC(=O)OC(C)(C)C)NC(=O)OC(C)(C)C` (centres undefined) (Boc-Asp(OtBu)-[Phe(4-NO2)]-OMe; configuration not given here), the TGI was more than 100 µM.

With `COc1ccc(NC(=O)C2=C(SC)C(=O)N=C2N)cc1`, the TGI was more than 100 µM.

Regarding `COc1ncnc2c(-c3ccco3)cn(COCc3ccccc3)c12`, the GI50 was more than 50 µM and the TGI is more than 50 µM.

`Cc1cccc(N2CCN(S(=O)(=O)c3ccc(Cl)cc3)C2=N)c1C` gave a TGI of more than 100 µM.

`COc1cc2c(cc1OC)C1Cc3ccccc3CN1CCC2` (centres undefined) yielded a TGI of more than 100 µM.

`CSC1(SC)CCCCCCCCCCC1` came in with a TGI of more than 100 µM.

On to `Cc1nc(C(N)=S)sc1C(=O)CC(=O)C(=O)Nc1cccc(Cl)c1C`, for which the TGI was more than 100 µM.

Take `COc1cc(/C=C\c2cccnc2Nc2ccccc2)cc(OC)c1OC`: the GI50 was 21.1 µM and the TGI was more than 100 µM.

Compound `COc1cc(O)c2c(c1)C(O)C(O)CC1OC1C(=O)/C=C/CC(C)OC2=O` (centres undefined) registered a TGI of 45.5 µM.

`CCOC(=O)C(Cc1c(-c2[nH]c3ccccc3c2CC(NC(=O)CNC(C)=O)C(=O)OCC)[nH]c2ccccc12)NC(=O)CNC(C)=O` (centres undefined) registered a TGI of more than 100 µM.

Consider `CCOc1cccnc1/C=N/NC(N)=S`, for which the GI50 is 3.8 µM and the TGI is more than 100 µM.

The compound `O=C(CCCN1CCc2[nH]c3cc(F)ccc3c2C1)c1ccc(F)cc1` displayed a TGI of 25.4 µM.

`O=c1c2cc(F)ccc2sc2c(NCCCN3CCCC3)nc3ccccc3c12`: the GI50 was 2.35 µM and the TGI turned out to be 6.68 µM.

Turning to `COc1cc2c(c(OC)c1OC)-c1ccc(SC)c(=O)cc1[C@@H](NC(=O)c1ccc(C#N)cc1)CC2`, the TGI was more than 100 µM.

As for `Cn1c(=O)c2[nH]c(N/N=C3/SCC(=O)N3Cc3ccccc3)nc2n(C)c1=O`, the TGI was more than 100 µM.

`CCN(CC)c1ccc(C(=C2C=CC(=[N+](CC)CC)C=C2)c2ccccc2)cc1` returned a TGI of 0.912 µM.

Take `COC1(OC)/C(=C(\N)C=O)NC(C)(C)N1O`: the TGI is more than 100 µM.

As to `Cn1cc(-c2nn3cc(-c4cccs4)nc3s2)c2cc(F)ccc21`, the GI50 was 4.71 µM and the TGI was more than 100 µM.

Consider `CCOc1cc(C=O)ccc1O`, for which the TGI is more than 100 µM.

`CCOC(=N)CC(=O)NC(C)c1ccccc1` (centres undefined) gave a TGI of more than 100 µM.

In the case of `CC1(C)CC2(C)OC2C2(C1)N=NC(=Nc1ccccc1)O2` (centres undefined), the GI50 was 16.1 µM and the TGI worked out at 40.2 µM.

For `C[C@]12CC[C@@H]3c4ccc(O)cc4CC[C@H]3[C@@H]1CC[C@@H]2NS(=O)(=O)c1ccc(-c2ccccc2)cc1`, the GI50 was 9.99 µM and the TGI was more than 100 µM.

`COc1cc(/C=C2\C[C@H]3[C@@H]4CC=C5C[C@@H](N6CCCC6)CC[C@]5(C)[C@H]4CC[C@]3(C)[C@H]2OC(C)=O)cc(OC)c1OC` registered a TGI of 28.7 µM.

Regarding `C/C=C\C(CC(=O)O)CC(=O)NCCC1CN(S(=O)(=O)C(F)(F)F)c2ccccc21` (centres undefined), the TGI was more than 100 µM.

Take `Cc1cnc2[nH]c(-c3ccccc3)cc(=O)c2c1`: the TGI was more than 100 µM.

For `CC(C)[Si]1(C(C)C)OCC2OC(n3cnc4c(N)ncnc43)C(N)C2O[Si](C(C)C)(C(C)C)O1` (centres undefined), the TGI was more than 79.7 µM.

As for `COc1ccc(N(Cc2cc(OC)c(OC)c(OC)c2)C2OC(=O)c3ccccc32)cc1` (centres undefined), the GI50 is 1.05 µM and the TGI was more than 100 µM.

For the compound `CCNC(=O)Oc1ccc(/C(=C(\C)c2ccc(Cl)cc2)c2ccc(OCCN3CCCCC3)cc2)cc1`, the GI50 is 8.51 µM and the TGI was 21.1 µM.

Take `O=C1c2ccccc2C(=O)c2c1ccc1c3ccccc3n(Cc3ccccc3)c21`: the TGI is more than 100 µM.

`CCOP(=O)(OCC)C(F)(F)CC1CCCCC1` returned a TGI of more than 10 µM.

The compound `Cc1cc(S(=O)(=O)NC(=NCC(=O)NN)NN)c(S)cc1Cl` returned a TGI of more than 10 µM.

As for `COc1cccc(N2N=C3c4ccccc4-n4c(nc5ccccc54)C3C2N)c1` (centres undefined), the TGI is more than 100 µM.

`O=C1O/C(=C\c2ccc(O)cc2)C(c2ccc(O)c(Cl)c2)=C1Br` showed a TGI of 35.8 µM.

As for `C/C(=N\NC(=S)N1CCC(C2CCN(C(=S)N/N=C(\C)c3ccccn3)CC2)CC1)c1ccccn1`, the TGI was more than 100 µM.

In turn, `CCC1NCC(=O)c2c1[nH]c1ccccc21` (centres undefined) had a TGI of more than 100 µM.

In turn, `CC(=O)Oc1ccc2c(c1)c1c(OC(C)=O)c3ccccc3c(OC(C)=O)c1n2Cc1cccc(C)c1` yielded a TGI of more than 100 µM.

`C=C(C)[C@]12CC(C)C34OC(/C=C\C=C\CCCCCCCCC)(O[C@@H]1[C@@H]3[C@@H]1O[C@]1(CO)[C@@H](O)[C@]1(O)C(=O)C(C)=C[C@@H]41)O2` (some centres undefined) gave a TGI of 11.9 µM.

Compound `Cc1ccc(S(=O)(=O)NC(=O)NS(=O)(=O)O)cc1` came in with a TGI of more than 100 µM.

On to `COC(=O)c1ccc(OCc2ccc3nc(-c4ccccc4)c(Cl)nc3c2)cc1`, for which the TGI was more than 100 µM.

The compound `CC(=O)Nc1ncc2c(n1)-c1ccccc1OC2` came in with a TGI of more than 100 µM.

For the compound `COc1cc(C(=O)N/N=C/c2cccc([N+](=O)[O-])c2)cc(OC)c1OC`, the GI50 is 6.33 µM and the TGI is more than 100 µM.

In the case of `CCCCCCCCCCCCCCCC(=O)N[C@H]1CCc2cc(OC)c(OC)c(OC)c2-c2ccc(SC)c(=O)cc21`, the GI50 was 3.35 µM; the TGI was 34.8 µM and 37.9 µM.

For `CSCCC(NC(=O)C(CC(C)C)NC(=O)CNC(=O)OC(C)(C)C)C(=O)N(C)C` (stereo not drawn) (Boc-Gly-Leu-Met-NMe2; configuration not given here), the TGI was more than 100 µM.

The compound `O=C1/C(=C/c2ccccc2)CN(C(=O)OCC(Cl)(Cl)Cl)C/C1=C\c1ccccc1` yielded a TGI of 47 µM.

On to `C/C(=N\O)c1ccc(Nc2c3ccccc3nc3occc23)cc1`, for which the TGI is more than 50 µM.

For `COc1ccc(CC2C(=O)NC(C)C(=O)N(C)C3Cc4ccc(cc4)Oc4cc(ccc4O)CC(C(=O)NC(C)C(=O)NC(C)C(=O)N2C)N(C)C3=O)cc1` (centres undefined), the GI50 was less than 0.0001 µM; the TGI was 0.0411 µM and 0.0273 µM.

Turning to `O=C(Nc1ccccc1)Nc1ccccc1CNc1nc(Nc2ccc(OCCN3CCCC3)cc2)ncc1Cl`, the GI50 is 6.14 µM and the TGI worked out at 12.4 µM.

As to `Cc1ccc(OCCCCCCNCCO)c(C)c1`, the GI50 was 15.5 µM and the TGI amounted to 30.7 µM.

In the case of `CC1SC2(CCCCC2)N(NC(=O)c2[nH]c3ccc(F)cc3c2-c2ccccc2)C1=O` (centres undefined), the GI50 is more than 100 µM and the TGI is more than 100 µM.

With `CCCCCCCCCCCCCCCC(=O)OCC1OC(n2ccc(N)nc2=O)C(O)C1O` (centres undefined), the TGI was more than 100 µM.

With `CSc1s[s+]c(SC)c1-c1ccccc1`, the TGI is more than 100 µM.

As to `CC(C)C[C@H](NC(=O)[C@@H](O)[C@H](N)Cc1ccccc1)C(=O)O`, the GI50 is more than 100 µM and the TGI was more than 100 µM.

`CCc1nc(N)nc(N)c1-c1ccc([N+](=O)[O-])c(Cl)c1` yielded a TGI of more than 100 µM.

In turn, `C=CCOn1c(C=C)nc2c(C)cccc21` displayed a TGI of 14.7 µM.
